Measurements published in PubChem BioAssay (NCATS).
Several values for one entry are separate records, joined by “and”; a condition that tells them apart may be missing. Identical values can stand only once. Inconclusive results, whose numbers are uncertain, are shown with a selection of clear calls. For part of these data: Where the call is inconclusive, the potency comes from a doubtful curve fit. For part of these data: “Side channel” marks fits to a control or component signal instead of the main read-out. Activity calls are given as the source filed them. Unless noted, calls follow the shape of the dose curve; as a rule, active = well fitted curve in the direction sought with a large enough effect; inconclusive = small, poorly fitted or top-dose-only effect, or another doubt; inactive = no such curve, though single readings can be large; an effect the other way counts as inactive or inconclusive.

Assays:
[1] = qHTS Assay for Identification of Small Molecule Antagonists for NFkB Signaling Pathway (AID 895; active = well fitted inhibition curve with a large enough effect in the signal ratio, with a control signal flat, not every such curve was filed as active; inconclusive = small, poorly fitted or top-dose-only effect, or effect the other way, or a change in a side signal; the % refers to the signal ratio; as to activity change, negative = inhibition: % is scaled to controls: 0 for no effect and ±100 for the full control effect); settings: NFkB beta-lactamase reporter cells, FRET ratio 460/530, stimulated with 10 pM TNF alpha; activity change, negative = inhibition: at 38.3 µM (top of the series)
Summary of the method: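 ME-180 NFkB-bla cells (beta-lactamase under NFkB response element), plated overnight, treated with compound then 10 pM TNF alpha (about EC50) for 5 hrs at 37 C. LiveBLAzer FRET read at 460/530 nm emission, 405 nm excitation.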

[2] = qHTS Assay for Identification of Small Molecule Agonists for Thrombopoietin (TPO) Signaling Pathway (AID 917)
Summary of the method: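 Activators of TPO signaling were sought in murine Ba/F3 cells transfected with the human receptor, using a luciferase gene driven by the Glycoprotein IIb promoter; 24-hr compound exposure at 37 C alongside 26 pM TPO, in IL-3-free medium.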

[3] = target: Cytochrome P450 2C19 (Homo sapiens) (UniProt P33261); assay: qHTS Assay for Inhibitors and Substrates of Cytochrome P450 2C19 (AID 899); also: nearly all actives have a fitted effect of over 60% in size
Sequence of UniProt P33261 (P33261 whole entry, looked up): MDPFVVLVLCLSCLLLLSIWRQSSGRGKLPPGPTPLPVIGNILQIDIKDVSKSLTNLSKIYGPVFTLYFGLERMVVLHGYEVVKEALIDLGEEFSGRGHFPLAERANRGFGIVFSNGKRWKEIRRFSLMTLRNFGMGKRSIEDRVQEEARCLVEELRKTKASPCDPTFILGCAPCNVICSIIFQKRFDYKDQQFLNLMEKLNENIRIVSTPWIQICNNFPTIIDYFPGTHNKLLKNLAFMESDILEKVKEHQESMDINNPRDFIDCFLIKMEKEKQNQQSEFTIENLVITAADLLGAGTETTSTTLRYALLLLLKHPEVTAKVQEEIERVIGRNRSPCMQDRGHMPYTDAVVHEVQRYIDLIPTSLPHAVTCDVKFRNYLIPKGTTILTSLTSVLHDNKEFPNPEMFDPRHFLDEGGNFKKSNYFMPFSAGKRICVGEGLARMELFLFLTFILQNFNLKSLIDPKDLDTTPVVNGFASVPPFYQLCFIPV
Summary of the method: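 Luminescent read-out of luciferin formed from Luciferin-H EGE (10uM, equal to KM). Enzyme 5nM in 50mM KPO4; compound added, 10 min at 37C, then NADPH regenerating system for 60 min at 37C. Full inhibition defined by 57uM ketoconazole.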

[4] = qHTS Assay for Identification of Small Molecule Agonists for Hypoxia Response Element Signaling Pathway (AID 914; active = well fitted activation curve with a large enough effect in the signal ratio, with a control signal flat, not every such curve was filed as active; inconclusive = small, poorly fitted or top-dose-only effect, or effect the other way, or a change in a side signal; the % refers to the signal ratio; as to activation: top concentration of the series differs between compounds; % of control where 0% means no effect); settings: ME-180 (cervical carcinoma) HRE-bla reporter, beta-lactamase ratio, CoCl2, 17 h; activation: stronger effect = higher value
Summary of the method: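 Compounds in a titration series were added to ME-180 reporter cells alongside an EC50 level of CoCl2. After 17 hours, beta-lactamase activity was read as the 460nm/530nm emission ratio of CCF4, giving AC50 values.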

[5] = target: Cytochrome P450 2D6 (Homo sapiens) (UniProt P10635); assay: qHTS Assay for Inhibitors and Substrates of Cytochrome P450 2D6 (AID 891);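 also: luciferin methyl ether substrate demethylated by CYP2D6 with NADPH regeneration; nearly all actives have a fitted effect of over 60% in size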
Sequence of UniProt P10635 (P10635 whole entry, looked up): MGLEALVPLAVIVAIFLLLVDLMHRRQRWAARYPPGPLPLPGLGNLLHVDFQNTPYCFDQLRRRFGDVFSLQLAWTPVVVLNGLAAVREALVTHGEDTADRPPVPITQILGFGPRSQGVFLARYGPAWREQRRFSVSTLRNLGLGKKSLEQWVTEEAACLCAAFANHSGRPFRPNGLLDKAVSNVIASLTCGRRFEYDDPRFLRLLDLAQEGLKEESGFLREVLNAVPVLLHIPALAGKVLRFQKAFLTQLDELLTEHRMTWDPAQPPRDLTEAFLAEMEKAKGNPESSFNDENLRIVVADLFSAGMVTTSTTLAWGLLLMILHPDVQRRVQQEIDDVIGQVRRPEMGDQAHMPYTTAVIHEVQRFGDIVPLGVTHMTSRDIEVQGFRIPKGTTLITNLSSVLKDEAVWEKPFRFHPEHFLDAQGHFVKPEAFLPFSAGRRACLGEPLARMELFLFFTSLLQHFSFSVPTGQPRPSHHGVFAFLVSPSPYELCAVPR
Summary of the method: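 Human CYP2D6 (5 nM) with 30 uM Luciferin-ME EGE (at Km) in 100 mM KPO4, compound preincubated 10 min, then NADPH regeneration system for 60 min at room temperature. Luciferin read by luminescence; normalized to 1.43 uM quinidine.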

[6] = Confirmation and Secondary Assay for Modulators of Hemoglobin Beta Chain Splicing at IVS2 654 locus (AID 910);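 also: HeLa cells stably carrying EGFP split by mutant beta-globin IVS2-654 intron; potency of activators that raise GFP signal by restoring correct splicing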
Summary of the method: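 HeLa cells stably expressing EGFP interrupted by β-globin IVS2-654 intron, seeded overnight in Opti-MEM/2% FCS, then treated 2 days at 37 °C. Restored splicing read as total peak GFP intensity per well by laser scanning cytometry (488 nm excitation, 500–520 nm emission); 500 nM antisense PNA as control.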
Potency is read from the fitted curve at half-maximal effect; tags tell the direction and shape of the fitted curve or compound fluorescence and quenching.

Structure (SMILES): C[C@]12C[C@H](O)[C@H]3[C@@H](CCC4=CC(=O)CC[C@@]43C)[C@@H]1CC[C@@H]2C(=O)CO
- Potency [1]: inconclusive: 0.02 µM [inhibitor, full curve, poor fit]
- Potency [2]: inconclusive: 1.26 µM [inhibitor, partial curve]

Structure (SMILES): CCc1c(C)[nH]c2c1C(=O)C(CN1CCOCC1)CC2 (configuration not stated)
- activity change, negative = inhibition [1]: inconclusive: -30.6%
- Potency [2]: inactive

Structure (SMILES): O=C(CCCN1CCC(O)(c2cccc(C(F)(F)F)c2)CC1)c1ccc(F)cc1
- activity change, negative = inhibition [1]: inconclusive: -13.2%
- Potency [2]: inconclusive: 12.6 µM [inhibitor, partial curve]

Structure (SMILES): NC(=O)N1c2ccccc2C=Cc2ccccc21
- Potency [1]: inactive
- Potency [3]: inactive
- activation [4]: inactive: -7.9% and inactive: -9.09% and inactive: -6.88%

Structure (SMILES): COc1cc2c(cc1OC)-c1cc(=Nc3c(C)cc(C)cc3C)n(C)c(=O)n1CC2
- Potency [1]: active: 5.62 µM
- Potency [4]: inconclusive: 6.31 µM [inhibitor, full curve]
- Potency [2]: inconclusive: 3.98 µM [inhibitor, partial curve]

Structure (SMILES): Clc1ccc2c(c1)C(N1CCNCC1)=Nc1ccccc1O2
- Potency [1]: inconclusive: 15.8 µM [cytotoxic, side channel, partial curve]
- Potency [4]: inconclusive: 7.94 µM [activator, partial curve]
- activation [4]: inconclusive: 67.4% and inconclusive: 31.8%
- Potency [2]: inconclusive: 10 µM [inhibitor, partial curve]

Structure (SMILES): COc1ccc(C2CNC(=O)C2)cc1OC1CCCC1 (configuration not stated)
- Potency [1]: inactive

Structure (SMILES): c1cnc(N2CCN(Cc3ccc4c(c3)OCO4)CC2)nc1
- Potency [1]: inconclusive: 0.112 µM [activator, full curve, poor fit]

Structure (SMILES): Cc1cc2c(C(C)C)c(O)c(O)c(C=O)c2c(O)c1-c1c(C)cc2c(C(C)C)c(O)c(O)c(C=O)c2c1O
- Potency [3]: inconclusive: 6.31 µM [inhibitor, partial curve, poor fit]

Structure (SMILES): O=C(c1ccc(OCCN2CCCCC2)cc1)c1c(-c2ccc(O)cc2)sc2cc(O)ccc12
- Potency [1]: inconclusive: 12.6 µM [inhibitor, partial curve, poor fit]
- Potency [2]: inconclusive: 15.8 µM [inhibitor, partial curve]

Structure (SMILES): Nc1ncn([C@@H]2O[C@H](CO)[C@@H](O)[C@H]2O)c(=O)n1
- Potency [1]: inconclusive: 2.24 µM [inhibitor, partial curve]
- Potency [2]: inconclusive: 3.16 µM [inhibitor, full curve]

Structure (SMILES): COc1cc2ncnc(Nc3cccc(Cl)c3)c2cc1OC
- Potency [1]: active: 15.8 µM
- Potency [4]: inconclusive: 15.8 µM [inhibitor, partial curve, poor fit]

Structure (SMILES): CN(C)CCCN1c2ccccc2Sc2ccc(Cl)cc21
- Potency [1]: inconclusive: 28.2 µM [inhibitor, single point]
- Potency [2]: inconclusive: 12.6 µM [inhibitor, partial curve]

Structure (SMILES): NC(=O)c1cccc(N)c1
- Potency [1]: inactive

Structure (SMILES): CC(=O)Oc1cc(C(C)C)c(OCCN(C)C)cc1C
- Potency [1]: inactive

Structure (SMILES): COc1cc(NS(C)(=O)=O)ccc1Nc1c2ccccc2nc2ccccc12
- activity change, negative = inhibition [1]: inconclusive: 47.3%
- Potency [4]: inconclusive: 5.01 µM [inhibitor, full curve]
- Potency [2]: inconclusive: 2.51 µM [inhibitor, partial curve]

Structure (SMILES): CNCCCC1c2ccccc2C=Cc2ccccc21
- Potency [1]: active: 8.91 µM
- Potency [2]: inconclusive: 10 µM [inhibitor, partial curve]

Structure (SMILES): CC(C)N=c1cc2n(-c3ccc(Cl)cc3)c3ccccc3nc-2cc1Nc1ccc(Cl)cc1
- Potency [5]: active: 2.51 µM
- Potency [4]: inconclusive: 2.51 µM [activator, partial curve] and inconclusive: 7.94 µM [cytotoxic, side channel, partial curve]

Structure (SMILES): CC(=O)O[C@H]1C(=O)[C@@]2(C)[C@H]([C@H](OC(=O)c3ccccc3)[C@]3(O)C[C@H](OC(=O)[C@H](O)[C@@H](NC(=O)c4ccccc4)c4ccccc4)C(C)=C1C3(C)C)[C@]1(OC(C)=O)CO[C@@H]1C[C@@H]2O
- activity change, negative = inhibition [1]: inconclusive: -18.5%
- Potency [2]: inconclusive: 12.6 µM [inhibitor, partial curve]

Structure (SMILES): COc1c2occc2c(OC)c2c(=O)cc(C)oc12
- Potency [3]: inconclusive: 5.01 µM [inhibitor, partial curve, poor fit]

Structure (SMILES): Cn1cnc([N+](=O)[O-])c1Sc1ncnc2nc[nH]c12
- Potency [1]: inactive
- Potency [6]: active: 1.58 µM

Structure (SMILES): CNNCc1ccc(C(=O)NC(C)C)cc1
- Potency [3]: inconclusive: 5.01 µM [inhibitor, single point]
